# In the supplement of paper PMC8728848:
# This is one part of the list.
# B1: NPA (Narcissus pseudonarcissus), C0HM45 (protein)
# chain: DNILYSGETLSPGEFLNNGRYVFIMQEDCNLVLYDVDKPIWATNTGGLDRRCHLSMQSDGNLVVYSPRNNPIWASNTGGENGNYVCVLQKDRNVVIYGTARWATGTNIH
# Legend:
# Experiment in all cases: glycan array binding signal (z-score within array); higher = stronger binding
# Settings in all cases: glycan notation: IUPAC condensed, linker removed
# [1] = target: Gal(b1-4)GlcNAc(b1-3)Gal(b1-3)GlcNAc
# Outline: (§1)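 Glycan array data were curated from 3228 arrays in the Consortium for Functional Glycomics database and kept only where the protein sequence was available. Glycan names were converted to IUPAC-condensed notation, and columns mapping to the same glycan were averaged. The binding signal is a within-array Z-score, averaged across arrays of the same protein sequence at different concentrations or buffers and across linkers. Negative Z-scores can be read as non-binding.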
# [2] = target: Gal(b1-4)GlcNAc(b1-3)Gal(b1-4)Glc
# Outline: as §1
# [3] = target: Gal(b1-4)GlcNAc(b1-3)Gal(b1-4)GlcNAc
# Outline: as §1
# [4] = target: Gal(b1-4)GlcNAc(b1-3)Gal(b1-4)GlcNAc(b1-2)Man(a1-3)[Gal(b1-4)GlcNAc(b1-3)Gal(b1-4)GlcNAc(b1-2)Man(a1-6)]Man(b1-4)GlcNAc(b1-4)GlcNAc
# Outline: as §1
# [5] = target: Gal(b1-4)GlcNAc(b1-3)Gal(b1-4)GlcNAc(b1-2)Man(a1-3)[Gal(b1-4)GlcNAc(b1-3)Gal(b1-4)GlcNAc(b1-2)Man(a1-6)]Man(b1-4)GlcNAc(b1-4)[Fuc(a1-6)]GlcNAc
# Outline: as §1
# [6] = target: Gal(b1-4)GlcNAc(b1-3)Gal(b1-4)GlcNAc(b1-2)[Gal(b1-4)GlcNAc(b1-3)Gal(b1-4)GlcNAc(b1-6)]Man(a1-6)[Gal(b1-4)GlcNAc(b1-3)Gal(b1-4)GlcNAc(b1-2)Man(a1-3)]Man(b1-4)GlcNAc(b1-4)GlcNAc
# Outline: as §1
# [7] = target: Gal(b1-4)GlcNAc(b1-3)Gal(b1-4)GlcNAc(b1-2)[Gal(b1-4)GlcNAc(b1-3)Gal(b1-4)GlcNAc(b1-6)]Man(a1-6)[Gal(b1-4)GlcNAc(b1-3)Gal(b1-4)GlcNAc(b1-2)Man(a1-3)]Man(b1-4)GlcNAc(b1-4)[Fuc(a1-6)]GlcNAc
# Outline: as §1
# [8] = target: Gal(b1-4)GlcNAc(b1-3)Gal(b1-4)GlcNAc(b1-3)Gal(b1-4)GlcNAc
# Outline: as §1
# [9] = target: Gal(b1-4)GlcNAc(b1-3)Gal(b1-4)GlcNAc(b1-3)Gal(b1-4)GlcNAc(b1-2)Man(a1-3)[Gal(b1-4)GlcNAc(b1-3)Gal(b1-4)GlcNAc(b1-3)Gal(b1-4)GlcNAc(b1-2)Man(a1-6)]Man(b1-4)GlcNAc(b1-4)GlcNAc
# Outline: as §1
# [10] = target: Gal(b1-4)GlcNAc(b1-3)Gal(b1-4)GlcNAc(b1-3)Gal(b1-4)GlcNAc(b1-2)Man(a1-3)[Gal(b1-4)GlcNAc(b1-3)Gal(b1-4)GlcNAc(b1-3)Gal(b1-4)GlcNAc(b1-2)Man(a1-6)]Man(b1-4)GlcNAc(b1-4)[Fuc(a1-6)]GlcNAc
# Outline: as §1
# [11] = target: Gal(b1-4)GlcNAc(b1-3)Gal(b1-4)GlcNAc(b1-3)Gal(b1-4)GlcNAc(b1-2)[Gal(b1-4)GlcNAc(b1-3)Gal(b1-4)GlcNAc(b1-3)Gal(b1-4)GlcNAc(b1-6)]Man(a1-6)[Gal(b1-4)GlcNAc(b1-3)Gal(b1-4)GlcNAc(b1-3)Gal(b1-4)GlcNAc(b1-2)Man(a1-3)]Man(b1-4)GlcNAc(b1-4)[Fuc(a1-6)]GlcNAc
# Outline: as §1
# [12] = target: Gal(b1-4)GlcNAc(b1-3)Gal(b1-4)GlcNAc(b1-3)Gal(b1-4)GlcNAc(b1-3)Gal(b1-4)GlcNAc(b1-2)Man(a1-3)[Gal(b1-4)GlcNAc(b1-3)Gal(b1-4)GlcNAc(b1-3)Gal(b1-4)GlcNAc(b1-3)Gal(b1-4)GlcNAc(b1-2)Man(a1-6)]Man(b1-4)GlcNAc(b1-4)GlcNAc
# Outline: as §1
# [13] = target: Gal(b1-4)GlcNAc(b1-3)Gal(b1-4)GlcNAc(b1-3)Gal(b1-4)GlcNAc(b1-3)Gal(b1-4)GlcNAc(b1-2)Man(a1-3)[Gal(b1-4)GlcNAc(b1-3)Gal(b1-4)GlcNAc(b1-3)Gal(b1-4)GlcNAc(b1-3)Gal(b1-4)GlcNAc(b1-2)Man(a1-6)]Man(b1-4)GlcNAc(b1-4)[Fuc(a1-6)]GlcNAc
# Outline: as §1
# [14] = target: Gal(b1-4)GlcNAc(b1-3)Gal(b1-4)GlcNAc(b1-3)Gal(b1-4)GlcNAc(b1-3)Gal(b1-4)GlcNAc(b1-2)[Gal(b1-4)GlcNAc(b1-3)Gal(b1-4)GlcNAc(b1-3)Gal(b1-4)GlcNAc(b1-3)Gal(b1-4)GlcNAc(b1-6)]Man(a1-6)[Gal(b1-4)GlcNAc(b1-3)Gal(b1-4)GlcNAc(b1-3)Gal(b1-4)GlcNAc(b1-3)Gal(b1-4)GlcNAc(b1-2)Man(a1-3)]Man(b1-4)GlcNAc(b1-4)[Fuc(a1-6)]GlcNAc
# Outline: as §1
# [15] = target: Gal(b1-4)GlcNAc(b1-3)Gal(b1-4)GlcNAc(b1-3)Gal(b1-4)GlcNAc(b1-3)Gal(b1-4)GlcNAc(b1-3)Gal(b1-4)GlcNAc(b1-2)Man(a1-3)[Gal(b1-4)GlcNAc(b1-3)Gal(b1-4)GlcNAc(b1-3)Gal(b1-4)GlcNAc(b1-3)Gal(b1-4)GlcNAc(b1-3)Gal(b1-4)GlcNAc(b1-2)Man(a1-6)]Man(b1-4)GlcNAc(b1-4)GlcNAc
# Outline: as §1
# [16] = target: Gal(b1-4)GlcNAc(b1-3)Gal(b1-4)GlcNAc(b1-3)Gal(b1-4)GlcNAc(b1-3)Gal(b1-4)GlcNAc(b1-3)Gal(b1-4)GlcNAc(b1-2)Man(a1-3)[Gal(b1-4)GlcNAc(b1-3)Gal(b1-4)GlcNAc(b1-3)Gal(b1-4)GlcNAc(b1-3)Gal(b1-4)GlcNAc(b1-3)Gal(b1-4)GlcNAc(b1-2)Man(a1-6)]Man(b1-4)GlcNAc(b1-4)[Fuc(a1-6)]GlcNAc
# Outline: as §1
# [17] = target: Gal(b1-4)GlcNAc(b1-3)Gal(b1-4)GlcNAc(b1-3)Gal(b1-4)GlcNAc(b1-3)Gal(b1-4)GlcNAc(b1-3)Gal(b1-4)GlcNAc(b1-2)[Gal(b1-4)GlcNAc(b1-3)Gal(b1-4)GlcNAc(b1-3)Gal(b1-4)GlcNAc(b1-3)Gal(b1-4)GlcNAc(b1-3)Gal(b1-4)GlcNAc(b1-6)]Man(a1-6)[Gal(b1-4)GlcNAc(b1-3)Gal(b1-4)GlcNAc(b1-3)Gal(b1-4)GlcNAc(b1-3)Gal(b1-4)GlcNAc(b1-3)Gal(b1-4)GlcNAc(b1-2)Man(a1-3)]Man(b1-4)GlcNAc(b1-4)[Fuc(a1-6)]GlcNAc
# Outline: as §1
# [18] = target: Gal(b1-4)GlcNAc(b1-3)Gal(b1-4)GlcNAc(b1-3)Gal(b1-4)GlcNAc(b1-3)Gal(b1-4)GlcNAc(b1-3)Gal(b1-4)GlcNAc(b1-3)Gal(b1-4)GlcNAc(b1-2)Man(a1-3)[Gal(b1-4)GlcNAc(b1-3)Gal(b1-4)GlcNAc(b1-3)Gal(b1-4)GlcNAc(b1-3)Gal(b1-4)GlcNAc(b1-3)Gal(b1-4)GlcNAc(b1-3)Gal(b1-4)GlcNAc(b1-2)Man(a1-6)]Man(b1-4)GlcNAc(b1-4)GlcNAc
# Outline: as §1
# [19] = target: Gal(b1-4)GlcNAc(b1-3)Gal(b1-4)GlcNAc(b1-3)GalNAc
# Outline: as §1
# [20] = target: Gal(b1-4)GlcNAc(b1-3)Gal(b1-4)GlcNAc(b1-3)[Gal(b1-4)GlcNAc(b1-3)Gal(b1-4)GlcNAc(b1-6)]GalNAc
# Outline: as §1
# [21] = target: Gal(b1-4)GlcNAc(b1-3)Gal(b1-4)GlcNAc(b1-6)[Gal(b1-3)]GalNAc
# Outline: as §1
# [22] = target: Gal(b1-4)GlcNAc(b1-3)Gal(b1-4)[Fuc(a1-3)]GlcNAc(b1-3)Gal(b1-4)[Fuc(a1-3)]GlcNAc
# Outline: as §1
binder,measurement,setting,value
B1,glycan array binding signal (z-score),[1],-0.146
same,glycan array binding signal (z-score),[2],-0.15
same,glycan array binding signal (z-score),[3],-0.153
same,glycan array binding signal (z-score),[4],0.034
same,glycan array binding signal (z-score),[5],-0.066
same,glycan array binding signal (z-score),[6],-0.104
same,glycan array binding signal (z-score),[7],-0.085
same,glycan array binding signal (z-score),[8],-0.159
same,glycan array binding signal (z-score),[9],0.089
same,glycan array binding signal (z-score),[10],-0.101
same,glycan array binding signal (z-score),[11],-0.07
same,glycan array binding signal (z-score),[12],-0.087
same,glycan array binding signal (z-score),[13],-0.077
same,glycan array binding signal (z-score),[14],-0.078
same,glycan array binding signal (z-score),[15],-0.091
same,glycan array binding signal (z-score),[16],-0.108
same,glycan array binding signal (z-score),[17],0.011
same,glycan array binding signal (z-score),[18],-0.082
same,glycan array binding signal (z-score),[19],-0.052
same,glycan array binding signal (z-score),[20],0.095
same,glycan array binding signal (z-score),[21],0.004
same,glycan array binding signal (z-score),[22],-0.144
